Results on one molecule are retold here after the supplement of paper PMC8728848.

The other results are listed elsewhere or left out.

Holding throughout (assay): glycan array binding signal (z-score within array); higher = stronger binding
Common to all, as to settings: glycan notation: IUPAC condensed, linker removed

The target of experiment [1] is Gal(b1-4)GlcNAc(b1-2)Man(a1-3)[Gal(b1-4)GlcNAc(b1-2)Man(a1-6)]Man(b1-4)GlcNAc(b1-4)[Fuc(a1-6)]GlcNAc. In short, it runs like this: (§1)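 Negative Z-scores can be read as non-binding. The Z-score is calculated within each array and then averaged across arrays of one protein sequence at different concentrations or buffers and across linkers. Arrays, 3228 in all, were curated from the Consortium for Functional Glycomics database and kept only where the protein sequence was available.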

The target in experiment [2] is Gal(b1-4)GlcNAc(b1-2)Man(a1-3)[Gal(b1-4)GlcNAc(b1-2)Man(a1-6)][Gal(b1-4)GlcNAc(b1-4)]Man(b1-4)GlcNAc(b1-4)[Fuc(a1-6)]GlcNAc. An outline of the steps: as §1
In experiment [3] the target is Gal(b1-4)GlcNAc(b1-2)Man(a1-3)[Gal(b1-4)GlcNAc(b1-2)Man(a1-6)][GlcNAc(b1-4)]Man(b1-4)GlcNAc(b1-4)[Fuc(a1-6)]GlcNAc. An outline of the steps: as §1
The target in experiment [4] is Gal(b1-4)GlcNAc(b1-2)Man(a1-3)[GlcNAc(b1-2)Man(a1-6)]Man(b1-4)GlcNAc(b1-4)GlcNAc. An outline of the steps: as §1
Experiment [5] addresses Gal(b1-4)GlcNAc(b1-2)Man(a1-3)[GlcNAc(b1-4)][Gal(b1-4)GlcNAc(b1-2)Man(a1-6)]Man(b1-4)GlcNAc(b1-4)GlcNAc. An outline of the steps:
as §1

Experiment [6] has as its target Gal(b1-4)GlcNAc(b1-2)Man(a1-3)[Man(a1-6)]Man(b1-4)GlcNAc(b1-4)GlcNAc. In short, it runs like this: as §1
Experiment [7] concerns the target Gal(b1-4)GlcNAc(b1-2)Man(a1-6)Man(b1-4)GlcNAc(b1-4)GlcNAc. An outline of the steps: as §1
In experiment [8] the target is Gal(b1-4)GlcNAc(b1-2)Man(a1-6)[GlcNAc(b1-2)Man(a1-3)]Man(b1-4)GlcNAc(b1-4)GlcNAc. In short, it runs like this: as §1
Experiment [9] concerns the target Gal(b1-4)GlcNAc(b1-2)Man(a1-6)[Man(a1-3)]Man(b1-4)GlcNAc(b1-4)GlcNAc. In short, it runs like this:
as §1

Experiment [10] concerns the target Gal(b1-4)GlcNAc(b1-2)[Gal(b1-4)GlcNAc(b1-4)]Man(a1-3)[Gal(b1-4)GlcNAc(b1-2)Man(a1-6)]Man(b1-4)GlcNAc(b1-4)GlcNAc. In short, it runs like this:
as §1

Experiment [11] addresses Gal(b1-4)GlcNAc(b1-2)[Gal(b1-4)GlcNAc(b1-4)]Man(a1-3)[Gal(b1-4)GlcNAc(b1-2)[Gal(b1-4)GlcNAc(b1-6)]Man(a1-6)]Man(b1-4)GlcNAc(b1-4)GlcNAc. In short, it runs like this:
as §1

Experiment [12] concerns the target Gal(b1-4)GlcNAc(b1-2)[Gal(b1-4)GlcNAc(b1-4)]Man(a1-3)[GlcNAc(b1-4)][Gal(b1-4)GlcNAc(b1-2)Man(a1-6)]Man(b1-4)GlcNAc(b1-4)GlcNAc. An outline of the steps:
as §1

The target in experiment [13] is Gal(b1-4)GlcNAc(b1-2)[Gal(b1-4)GlcNAc(b1-4)]Man(a1-3)[GlcNAc(b1-4)][Gal(b1-4)GlcNAc(b1-2)[Gal(b1-4)GlcNAc(b1-6)]Man(a1-6)]Man(b1-4)GlcNAc(b1-4)GlcNAc. In short, it runs like this:
as §1

For experiment [14], the target named is Gal(b1-4)GlcNAc(b1-2)[Gal(b1-4)GlcNAc(b1-6)]Man(a1-6)[Gal(b1-4)GlcNAc(b1-2)Man(a1-3)]Man(b1-4)GlcNAc(b1-4)GlcNAc. An outline of the steps:
as §1

Experiment [15] deals with Gal(b1-4)GlcNAc(b1-2)[Gal(b1-4)GlcNAc(b1-6)]Man(a1-6)[Gal(b1-4)GlcNAc(b1-2)Man(a1-3)]Man(b1-4)GlcNAc(b1-4)[Fuc(a1-6)]GlcNAc. In short, it runs like this: as §1
Experiment [16] concerns the target Gal(b1-4)GlcNAc(b1-2)[Gal(b1-4)GlcNAc(b1-6)]Man(a1-6)[GlcNAc(b1-4)][Gal(b1-4)GlcNAc(b1-2)Man(a1-3)]Man(b1-4)GlcNAc(b1-4)GlcNAc. An outline of the steps: as §1
Experiment [17] addresses Gal(b1-4)GlcNAc(b1-2)[Gal(b1-4)GlcNAc(b1-6)]Man(a1-6)[GlcNAc(b1-4)][Gal(b1-4)GlcNAc(b1-2)[Gal(b1-4)GlcNAc(b1-4)]Man(a1-3)]Man(b1-4)GlcNAc(b1-4)[Fuc(a1-6)]GlcNAc. In short, it runs like this:
as §1

The target in experiment [18] is Gal(b1-4)GlcNAc(b1-3)Gal(b1-3)GalNAc. In short, it runs like this:
as §1

For experiment [19], the target named is Gal(b1-4)GlcNAc(b1-3)Gal(b1-3)GlcNAc. An outline of the steps:
as §1

B1: FGFR2-Fc (protein)
chain: MVNVTDAISSGDDEDDTDGAEDFVSENSNNKRAPYWTNTEKMEKRLHAVPAANTVKFRCPAGGNPMPTMRWLKNGKEFKQEHRIGGYKVRNQHWSLIMESVVPSDKGNYTCVVENEYGSINHTYHLDVVERSPHRPILQAGLPANASTVVGGDVEFVCKVYSDAQPHIQWIKHVEKNGSKYGPDGLPYLKVLKHSGINSSNAEVLALFNVTEADAGEYICKVSNYIGQANQSAWLTVLPKQQAPGREKEITASPDYLETRPLEQKLISEEDLAANDILDYKDDDDKV
Turning to B1, the “glycan array binding signal (z-score)” value in experiment [1] is 0.084; in [2], -0.801; in experiment [3], -0.418; in experiment [4] it was -0.265; in experiment [5], -0.552; in experiment [6], -0.414. Besides, the “glycan array binding signal (z-score)” value was -0.148 in experiment [7]; -0.06 in [8]; 0.515 in experiment [9]; -0.037 in [10]; -0.23 in experiment [11]; -0.176 in experiment [12]. Also, the “glycan array binding signal (z-score)” value in experiment [13] was 0.046; in experiment [14], -0.1; in experiment [15], -0.336; in experiment [16], -0.241; in [17] it was -0.188; in [18], -0.42. In addition, in experiment [19], the “glycan array binding signal (z-score)” value was determined as 0.404.
